According to the supplement of paper PMC12632987:
The full ranking holds about 4,500 sequences; the median of “median log2 fold change of GCK-ALFA target abundance (FLAG IP / Myc IP barcode read proportion)” is about 0.078, and the lowest 2% start at about -0.6. The list shows a part of the results.

B1: GBRAP_184_5080 (protein)
chain: KTLERLVEAETREELLAKVEEVLKEAAKEKANLVVHVKMKGLTVETALEIIDLLGKAKKEGKVPEVTVGFDEEFSEEEIDIILERADEQGIRVVLPIKDE
B2: GBRAP_128_3445 (protein)
chain: MEEEIEAYAKEVLEEFKKKLEKGPEEAAEFFIEKLKEVDLETAEAITKAVVEYLKTQPIELAEKVLDEIMRLSKELSPEKRAIVLDYVSPLLYELEEKEE
B3: GBRAP_57_6466 (protein)
chain: MTPLEKALEYFKKAIELVKAGASLEEILEEVKKGLDELDRETLLDILLLLDPSTRSDLSKEELKERLLELIRRLLEEEGREAALKALELMAGQVEMDLVE
B4: GBRAP_14_3846 (protein)
chain: VEALIKAVEETAKDTIALAAEIAPEHAEEIGKKIEELAKKLIEEIKKKNLNEEEVAERLDEMAEELAAYIREKGYMSDEEIAAFRAHIIGTAALLLSEIE
B5: GBRAP_14_3863 (protein)
chain: MEELIKAVKETAEATKKFAAELAPEHAEEINKKIDELAEKIIKKIKEENLNKEEVAKLAEEAAEELAKFMLEKGYMSEEEAAAFRAHYLSEFLLNLEEVE
B6: GBRAP_128_3461 (protein)
chain: SIEEVKKWTRETMEKAEKASLEEARKLFEELAERLLTLSLEEVEAAVEVIEENLPKLSAEKLEILAEVFEEKLPLFSPEKRALVADVISDALLLAEEQEE
B7: GBRAP_125_3040 (protein)
chain: SLEEQLEALARLARLLGLSDDDIEELVRLAREHGIKGALIALLMAEGLEDLADLVEQLTEEQVAEVLKRLLAWLDAHPDATAEEAVAKLKELAKEALAAA
B8: GBRAP_26_5485 (protein)
chain: GTREILDALEAEVRAILADEPAEVQAAVVAEAIDRAIEFEEVVEENVNNQEKIKKAKEEALKELREFLKDLGVPEEKQKAVVEALAKALEKIEKHILEKA
B9: GBRAP_160_4170 (protein)
chain: SEKVEEAIKEIEELFEEAKEMVKGQSAEERAAIVAVTFGEIRLLLEEKGLLTDELDEKIEELEKELVDTILANPDLTDEEIAALLDETLEKLKEALKKSS
B10: GBRAP_9_7144 (protein)
chain: REEMVKKIREVLEDMFEEVSEIVPEEVKPLVDKLRKEALAAFDKVVADPSATEQEIVDAAKQLIDDFAEAVSAKVSPEIAKMVEAIALTAKEEIDEIYEE
B11: GBRAP_184_5082 (protein)
chain: KLYEAEIVAETEEELLKKVEEVLKEAAELKADLVVLVDAKGLNVELAIKIIEKFGKAKKEGKVKNVTIGFTNEFSEEEVDKLVKAADEAGVKVVLPLKDE
B12: GBRAP_73_6498 (protein)
chain: LTDTGLTDEEIADIVDHENDIFNGGEEAYEAAVARIRAALPELSPERQELLRRILEAAERAKKKDKLLAYELVALALAVVEGLDLEKARRALEALEKRLE
B13: GBRAP_35_5583 (protein)
chain: EIEEIILDTVEDFAEATIEAIETEDIETVISLTKAFIKTVKLAIKDLKNNLEALKKIKEEIEKVIKALKEKRSDNPEIQELIKELEKLLKEAEELAKKNE
B14: GBRAP_78_6689 (protein)
chain: EIEELLDKAIEHLGKAAKILAKMNTEEALELLDKVIDAASILTEALLGETKLEDLKEALKILKEVIKELKKIDTEEAKEALKYVEEAKEHVEKAIKLLEE
B15: GBRAP_184_5152 (protein)
chain: TTVNRYIDAKTVEEAIEKARKAFKEAKAAGKKLTLLIDAEGLSVEEVERLMREVVALAKEEGLEDANIIVEVEADEEEADRIIEIADKLGVRVVVALEEP
B16: GBRAP_14_3827 (protein)
chain: MEEIEKVLEEMKKELNELFKKISPEKAEELSKAVDEKIEEALKKIKETGDIEKAMEEAKEELVKEVEEILKDEPEEVRATAKAAVRILFDEALEEIEELL
B17: GBRAP_128_3214 (protein)
chain: STEEAVEQVRELLERIKTADPEERRRLARELAELVASSDVETAEAMLEVVEELAPELSEEDLEILMDAFLEASRKTDDEIGLILTEMAIIMGSQLIELEE
B18: GBRAP_128_3554 (protein)
chain: STEEVVEKAKELLEKIKNSDEEEARKYAEELVDLLASVDEESREAIVEVILEKLPELSVEQLEILADVFRERRPEVDEDVANALAEIEVEALNVALEKEE
B19: GBRAP_52_6246 (protein)
chain: MAARLRALAQEILDLVLAGDYEGARALAREVARTLNDEELEAFFDEFAALAKTQPKENLEKVWKATEIIAEVLEEEGKSEELVDLLEAKTAAALVEVLQA
B20: GBRAP_52_5954 (protein)
chain: AAARIQAQVDRLAALVRAGDLDAARALARELAETLDEEELRAFAAAVAAAVAAAPADELDAAFRLAEIVADELEREGRDEELAGDLLAAAAAALYAKEQA
B21: GBRAP_11_2610 (protein)
chain: KKETLKRLAELAEKAAEAVERLLEEGVDNEELLREIEELIEELAKEVEEHGDEADKTDVEVIRELWRKALEDPENRREYLEQLRAALRVFAGNYLLKIEE
B22: GBRAP_83_6892 (protein)
chain: ETITVVGADAASVEAAIDAAIDLSTNEGYEVTLELLVTPEALPALKAGLERLAAAGVKVDLHVVVVARTREEAEAAAAELRAFAEASGAASSVTVETEVV
B23: GBRAP_160_4317 (protein)
chain: AAEYEALKKEITEIFDEAKELIEGQTPEEKLTIVRVALGDVLLLADENPAISDELEDQIAAIADAAEARVEANPDLTEEEVKALLDEAEDAILALIDKAA
B24: GBRAP_125_2980 (protein)
chain: PTEEELAALRRLARALGLDEAEAEELAELARAHSLRGALYALLAALGEEELAELVEKLTEAEVAEVLAEVAAYLAAHPDATPEEVLARLRELAKAALAKR
B25: GBRAP_160_4319 (protein)
chain: SALLEKLKKEIKEIAEEAIKLIEGESPEERKTIVKVALGEIVLLAVENPEISDELEDEIAAIADAAEAELDANPNLTEEEVKALLKEAVDKILAKIKASE
B26: GBRAP_160_4374 (protein)
chain: SEELKKLAKEIEKLKKEFEEEAKDLSPEETRILAIGVLSEVAALVFENEAVSEEVEDKIFEIIDEAIKKIRENTDASPEEIVKITKDALEKIIKLVKEEA
B27: GBRAP_52_5973 (protein)
chain: MREEARAFVERAVALQLAGDEAGLRALAEAFAATADDEQLRVLAEAVRELVEAADPERAEAAVEAALRLEDVLLAAGRDEALADEIVAAAAAAAVARLQR
B28: GBRAP_184_5183 (protein)
chain: MVAEYTIEAKNVEELKEKLDEIAKEIKGKKVELYVILEAEKVTVEMAKAALEKLGEIKAAGYATRITVLIEGEVSEEVVDVIVEEAKKAGVNVTIALPEE
B29: GBRAP_9_7177 (protein)
chain: EQEKKEKILEVVKEEIELALEVIPEEKREEAKKLFEEILAELKKAVEDPSVTLEELLELLEKLIEELIEKLKKILSKEVVNQVEAVLGTAILEAEEIVEE

Biological target: GABARAP, O95166
Sequence (O95166 whole entry, the tested form may be a part): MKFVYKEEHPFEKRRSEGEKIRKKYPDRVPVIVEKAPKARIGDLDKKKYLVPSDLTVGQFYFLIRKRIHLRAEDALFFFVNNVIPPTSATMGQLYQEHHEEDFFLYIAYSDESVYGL
Assay: median log2 fold change of GCK-ALFA target abundance (FLAG IP / Myc IP barcode read proportion) (log2 ratio); each designed protein is fused to an ALFA-tag nanobody in HEK293 cells to bring the named protein to FLAG-tagged glucokinase (GCK); Myc marks an untargeted standard; higher = target protein stabilised (more abundant)
Conditions: target protein: 3xFLAG-MCP-GCK-ALFA reporter; HEK293 landing pad (RPLP)
Method in brief: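 An ALFA-nanobody-fused binder library was recombined into HEK293 landing-pad cells and induced with 2 μg mL^−1 doxycycline. Cells were transfected with a plasmid expressing a FLAG-tagged target and a Myc-tagged standard. After 48 h, lysates underwent anti-FLAG and anti-Myc immunoprecipitation, and circular RNA barcodes were reverse transcribed, amplified and sequenced. Target abundance is the per-binder median log2 ratio of FLAG to Myc barcode read proportions. Barcodes needed ≥10^−7 proportion in both replicates, binders ≥3 barcodes per replicate, and a 10^−6 pseudocount was added; the two replicates were pooled.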

Row | Binder | median log2 fold change
1 | B1 | 0.258
2 | B2 | 0.149
3 | B3 | 0.253
4 | B4 | 0.12
5 | B5 | 0.321
6 | B6 | 0.178
7 | B7 | -0.512
8 | B8 | 0.243
9 | B9 | 0.214
10 | B10 | 0.134
11 | B11 | -0.177
12 | B12 | -0.718
13 | B13 | -0.172
14 | B14 | 0.137
15 | B15 | 0.0952
16 | B16 | -0.342
17 | B17 | -0.53
18 | B18 | 0.0568
19 | B19 | -0.0714
20 | B20 | -0.0538
21 | B21 | 0.0826
22 | B22 | 0.102
23 | B23 | -0.166
24 | B24 | 0.0397
25 | B25 | 0.0853
26 | B26 | -0.0146
27 | B27 | 0.0374
28 | B28 | -0.0284
29 | B29 | -0.0604
